Hit rate of the full screen: of about 46,000 compounds, about 60 (0.1%) were called active. Roughly 3% stayed inconclusive and do not appear here. Calls come from the whole dose curve; as a rule, active = well fitted inhibition curve with a large enough effect; inconclusive = small, poorly fitted or top-dose-only effect; inactive = no such curve, though single readings can be large or run the other way. This is one part of the list.
assay: Primary qHTS assay for Inhibitors of ovarian cancer metastasis using an organotypic tumor microenvironment (TME) model.; note: nearly all actives have a fitted effect of over 65% in size;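 for Potency: count of GFP cancer cells still attached after washing and fixation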;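 for activity change, negative = inhibition: plate controls were DMSO wells for no effect and tomatine positive control wells for full effect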; settings: SKOV3ip1-GFP adhesion/invasion on 3D omental model, fluorescence; series mostly up to 45.8 µM; activity change, negative = inhibition: at the top concentration
Method in brief: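 Primary human omental fibroblast/mesothelial 3D culture pre-formed 48 h. SKOV3ip1-GFP cells added with compounds (0.36-46 umol/L), incubated 2 h RT/16 h 37 C, fixed; GFP cells quantified at 488/509 nm.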
Potency is the fitted concentration of half-maximal effect.

Compound | activity change, negative = inhibition | outcome | Potency
CC(C)N(CCNC(=O)CN1CCCC1=O)C(C)C | inactive: -8.02% | – | –
NC1=NC(=O)N2CC12 (stereo unspecified) | inactive: 5% | – | –
Cc1ccccc1-n1c(/C=C/c2c(C)[nH]c3ccccc23)nc2ccccc2c1=O | – | inactive | –
COc1ccc(OCC(=O)N2CCN(CCc3ccncc3)CC2)cc1 | inactive: -4.41% | – | –
C[C@]12CC[C@H]3[C@@H](CC[C@@]45O[C@H]4C(O)=C(C#N)C[C@]35C)[C@H]1CC[C@H]2O | inactive: 2.59% | – | –
Fc1ccc(C(OCCN2CCN(CCCc3ccccc3)CC2)c2ccc(F)cc2)cc1 | inactive: -24.9% | – | –
CN(C)c1ccc(NC(=O)c2sc3nc4c(cc3c2N)N2CCC4CC2)cc1 | inactive: -2.77% | – | –
C=C(C)[C@H]1Cc2c(ccc3c2O[C@@H]2COc4cc(OC)c(OC)cc4[C@@H]2C3=O)O1 | inactive: -16.3% | – | –
COC(=O)C1=CCCN(C)C1 | inactive: 20.1% | – | –
CC(N[C@H]1C[C@H]1c1ccccc1)c1ccc2c(c1)OCCO2 (stereo partly specified) | inactive: -8.14% | – | –
Cc1c(C(c2ccc(Br)cc2)c2c(O)c3ccccc3oc2=O)c(=O)n(-c2ccccc2)n1C (stereo unspecified) | inactive: -3.08% | – | –
Cc1ccc(Cn2cccc(C(=O)Nc3cc(C)on3)c2=O)cc1 | inactive: -1.71% | – | –
Cc1cccc(-c2nn3c(=O)cc(CN4CCN(C(=O)COc5ccc(Cl)cc5)CC4)nc3s2)c1 | – | inactive | –
CCc1nc(SC)ncc1C(=O)Nc1ccc(Cl)cc1C(=O)c1ccccc1 | inactive: -2.09% | – | –
CC(=O)Nc1ccc(OC[C@](C)(O)C(=O)Nc2ccc([N+](=O)[O-])c(C(F)(F)F)c2)cc1 | inactive: -13.3% | – | –
COc1cccc(C2SCC(=O)Nc3c2c(C)nn3-c2ccc(C)c(Cl)c2)c1OC (stereo unspecified) | inactive: 2.71% | – | –
Cc1ccccc1OCC(=O)N1CCN(CCc2ccccn2)CC1 | inactive: 12.7% | – | –
C[C@](O)(COc1ccc(C#N)cc1)C(=O)Nc1ccc(C#N)c(C(F)(F)F)c1 | inactive: -7.97% | – | –
O=C(Nc1ccc2c(c1)OCO2)c1cccn(Cc2cccc([N+](=O)[O-])c2)c1=O | inactive: -9.5% | – | –
CC=C(C)C(=O)N[C@@H](c1ccccc1)[C@@H](O)C(=O)O[C@H]1C[C@@]2(O)[C@@H](OC(=O)c3ccccc3)[C@@H]3[C@]4(OC(C)=O)CO[C@@H]4C[C@H](O)[C@@]3(C)C(=O)[C@H](OC(C)=O)C(=C1C)C2(C)C | inactive: -6.19% | – | –
COc1ccc(NC(=O)CCc2nc(C3=CCN(Cc4cccc(Cl)c4)CC3)no2)c(OC)c1 | inactive: -4.57% | – | –
O=S1(=O)N(Cc2ccccc2Cl)CCCN1Cc1ccccc1Cl | inactive: 7.21% | – | –

Compound | activity change, negative = inhibition | outcome | Potency
CCCCC12CN3CC(C)(CN(C1)C3c1ccccn1)C2=O (stereo unspecified) | inactive: 98.4% | – | –
Cc1cccc(CN2C(=O)CN=C(c3ccccc3)c3ccccc32)c1 | – | inactive | –
COc1ccc(-n2c(/C=C/c3cccc(F)c3)nc3ccccc3c2=O)cc1Cl | inactive: -5.08% | – | –
Cc1ccc(NC(=O)Cn2cc(C(=O)c3ccccc3)c3ccccc32)c(C)c1 | – | inactive | –
CCOc1ccc(CN(CCc2ccc3c(c2)OCO3)Cc2ccc(C)cc2)cc1 | – | inactive | –
CC(C)Cc1nc2cccnc2n1C1CCNCC1 | – | inactive | –
Cc1cccc(-n2nc(C)c3c2NC(=O)CSC3c2ccccc2Cl)c1 (stereo unspecified) | inactive: 0.526% | – | –
Cc1nnc(NC(=O)c2cccn(Cc3cccc(F)c3)c2=O)s1 | inactive: -5.72% | – | –
O=c1[nH]c2ccccc2n1C1CCN(Cc2ccc(-c3[nH]c4cc5ncnc5cc4nc3-c3ccccc3)cc2)CC1 | inactive: 26.7% | – | –
COc1cccc(-c2nn3c(=O)cc(CN4CCN(C(=O)COc5ccccc5C)CC4)nc3s2)c1 | – | inactive | –
Cc1ccc(OCC(=O)Nc2ccc(Cl)cc2C(=O)c2ccccc2)cc1C | inactive: 0.525% | – | –
CC(C)c1ccc(OCC(=O)N2CCN(CCc3ccccn3)CC2)cc1 | inactive: 0.583% | – | –
Cc1ccc(OCC(=O)N2CCN(CCc3ccncc3)CC2)cc1 | inactive: -7.16% | – | –
Cc1cccc(Cn2cccc(C(=O)Nc3ccc(F)cc3F)c2=O)c1 | inactive: -7.99% | – | –
COc1ccc(OCC(=O)N2CCN(Cc3cc(=O)n4nc(-c5ccc(OC)cc5)sc4n3)CC2)cc1 | inactive: -2.32% | – | –
Cc1ccccc1-n1c(/C=C/c2ccc(N(C)C)cc2)nc2ccccc2c1=O | inactive: 10.5% | – | –
O=C(c1ccc2c(c1)N(Cc1ccc(F)cc1)C(=O)c1ccccc1S2)N1CCC2(CC1)OCCO2 | inactive: 6.4% | – | –
COc1ccc(OCC(=O)N2CCN(Cc3ccc(SC)cc3)CC2)cc1 | inactive: -11.3% | – | –
COc1ccc2c(c[n+](C)c3c4cc5c(cc4ccc23)OCO5)c1OC | – | – | active: 23.5 µM
CCC1(c2ccc(N)cc2)CCC(=O)NC1=O (stereo unspecified) | inactive: -6.54% | – | –
Cc1ccc(C(=O)Nc2ccccc2)cc1S(=O)(=O)N1CCCC1 | inactive: 8.01% | – | –
Cc1ccc(C(C)C)c(OCC(=O)N2CCN(CCc3ccncc3)CC2)c1 | inactive: -1.68% | – | –

Compound | activity change, negative = inhibition | outcome | Potency
C[C@@H]1[C@H](O)[C@@H](C)C=CC=CCCC=CC=CC=CC=C[C@H](O[C@H]2O[C@@H](C)[C@H](O)[C@@H](N)[C@@H]2O)CC2O[C@](O)(C[C@@H](O)[C@H](O)CC[C@@H](O)C[C@@H](O)C[C@@H](O)CC(=O)O[C@H]1C)C[C@H](O)[C@H]2C(=O)O | inactive: 14.7% | – | –
Cc1ccccc1CN1C(=O)C(C)N=C(c2ccccc2)c2ccccc21 (stereo unspecified) | inactive: -3.54% | – | –
CCOc1ccc(CN(CCc2ccc3c(c2)OCO3)Cc2ccc(OC)c(Br)c2)cc1 | inactive: -5.42% | – | –
CCOc1ccc2nc(NC(=O)c3cccn(Cc4ccccc4Cl)c3=O)sc2c1 | – | inactive | –
CCCN1CCO[C@@H]2c3cc(O)ccc3OC[C@@H]21 | inactive: 2.7% | – | –
C[C@@H]1CC[C@H]2[C@@H](C)C(=O)O[C@@H]3O[C@@]4(C)CC[C@H]1[C@]32OO4 | inactive: -4.42% | – | –
CCc1ccc(OCC(=O)N2CCN(CCc3ccncc3)CC2)cc1 | inactive: -0.114% | – | –
CC(C)(O)C(=O)Nc1ccc([N+](=O)[O-])c(C(F)(F)F)c1 | inactive: 4.83% | – | –
COc1ccc(OC)c(C(c2c(O)c3ccccc3oc2=O)c2c(C)n(C)n(-c3ccccc3)c2=O)c1 (stereo unspecified) | inactive: 3.25% | – | –
CCc1cccc(NC(=O)CN2C(=O)CN=C(c3ccccc3F)c3cc(Cl)ccc32)c1 | inactive: -22.5% | – | –
CSc1ccc(/C=C/c2nc3ccccc3c(=O)n2-c2cccc(Cl)c2C)cc1 | inactive: -6.08% | – | –
Cc1cc(OCC(=O)N2CCN(CCc3ccncc3)CC2)ccc1Cl | inactive: 1.16% | – | –
Cc1c(C(=O)Nc2cccc(C(F)(F)F)c2)cc(-c2ccccc2)n1CCCN1CCOCC1 | inactive: -19.1% | – | –
CCOc1ccc(CN(CCc2ccc3c(c2)OCO3)Cc2cc(OC)ccc2O)cc1 | inactive: -7.4% | – | –
CC(C)c1ccc(OCC(=O)N2CCN(CCc3ccncc3)CC2)cc1 | inactive: 8.56% | – | –
COc1ccc(-n2c(/C=C\c3ccccc3F)nc3ccccc3c2=O)c(OC)c1 | inactive: -7.87% | – | –
N#Cc1cc2c(nc1SCC(=O)Nc1ccc(C(F)(F)F)cc1)C1CCN2CC1 | – | inactive | –
Cc1cccc(-n2c(/C=C/c3c[nH]c4ccccc34)nc3ccccc3c2=O)c1 | inactive: -0.167% | – | –
C[C@]12CC[C@@H]3[C@@H](CCC4=CC(=O)CC[C@@H]43)[C@@H]1CC[C@@H]2OC(=O)CCc1ccccc1 | inactive: 24.8% | – | –
COc1ccc(-c2nc(CN3C(=O)CN=C(c4ccccc4)c4ccccc43)c(C)o2)cc1 | inactive: -20.4% | – | –
c1cc2c(cc1[C@H]1OC[C@H]3[C@H]1CO[C@H]3c1ccc3c(c1)OCO3)OCO2 | inactive: -2.3% | – | –
C[C@]12CC[C@H]3[C@@H](CCC4=CC(=O)CC[C@@]43C)[C@H]1CC[C@H]2OC(=O)CCC1CCCC1 | inactive: -18.7% | – | –

Compound | activity change, negative = inhibition | outcome | Potency
O=C(O)CCCc1ccc(N(CCCl)CCCl)cc1 | inactive: 3.28% | – | –
CC1=C2C[C@@H]3[C@@H](CC=C4C[C@@H](O)CC[C@@]43C)[C@@H]2CC[C@]12O[C@H]1C[C@H](C)CN[C@H]1[C@H]2C | inactive: 19.5% | – | –
Cc1cccc(Cn2cccc(C(=O)Nc3cc(C)on3)c2=O)c1 | – | inactive | –
COc1ccc(C(=O)N2CCCC2=O)cc1 | inactive: 2.05% | – | –
Oc1ccc2c3c1O[C@H]1c4[nH]c5c(c4C[C@@]4(O)[C@@H](C2)N(CC2CC2)CC[C@]314)C[C@@]1(O)[C@H]2Cc3ccc(O)c4c3[C@@]1(CCN2CC1CC1)[C@H]5O4 | inactive: 5.04% | – | –
CCN(CC)C(=O)c1ccc(NC(=O)CCn2nc(-c3ccc(Cl)cc3)c3ccccc3c2=O)cc1 | – | inactive | –
COc1ccc(CN2CCN(C(=O)COc3ccccc3)CC2)c(OC)c1 | – | inactive | –
Cc1cccc(C2CC(=O)Oc3c2c(=O)oc2ccccc32)c1 (stereo unspecified) | inactive: -8.92% | – | –
Cc1c(N)nc([C@H](CC(N)=O)NC[C@@H](N)C(N)=O)nc1C(=O)N[C@H](C(=O)N[C@@H](C)[C@H](O)[C@@H](C)C(=O)N[C@@H](C(=O)NCCc1nc(-c2nc(C(=O)NCCC[S+](C)C)cs2)cs1)[C@@H](C)O)C(O[C@H]1O[C@H](CO)[C@H](O)[C@@H](O)[C@@H]1O[C@H]1O[C@H](CO)[C@@H](O)[C@H](OC(N)=O)[C@H]1O)c1cnc[nH]1 (stereo partly specified) | inactive: -27.2% | – | –
CC1=C(O)C(=O)C=C2C1=CC=C1[C@@]2(C)CC[C@@]2(C)[C@@H]3C[C@](C)(C(=O)O)CC[C@]3(C)CC[C@]12C | – | – | active: 4.18 µM
CCN(CC)C(=O)c1ccc(NC(=O)CCn2nc(-c3ccc(C)cc3)c3ccccc3c2=O)cc1 | inactive: -6.14% | – | –
Cc1cc(OCC(=O)N2CCN(CCc3ccccn3)CC2)cc(C)c1Cl | inactive: 0.996% | – | –
CCOc1ccc(CN(CCc2ccc3c(c2)OCO3)Cc2cccc(C)c2)cc1 | inactive: -8.79% | – | –
O=C(CN1C(=O)CN=C(c2ccccc2)c2ccccc21)Nc1cccc(C(F)(F)F)c1 | inactive: 4.2% | – | –
CCCC1=Nc2cc(C(=O)NC3CCC(C)CC3)ccc2Sc2ccccc21 (stereo unspecified) | inactive: -5.69% | – | –
COc1cccc2c1[C@]13CCN(CC4CC4)[C@H](C2)[C@]1(OC)CCC(=O)C3 | inactive: 0.373% | – | –
CC(C)(O)C=CC(=O)[C@](C)(O)[C@H]1[C@H](O)C[C@]2(C)[C@@H]3CC=C4[C@@H](C=C(O)C(=O)C4(C)C)[C@]3(C)C(=O)C[C@@]12C | – | – | active: 1.05 µM
Cc1cc(NC(=O)c2cccn(Cc3ccccc3)c2=O)no1 | – | inactive | –
CCOC(=O)c1ccc(NC(=O)c2sc3nc4c(cc3c2N)N2CCC4CC2)cc1 | inactive: -13.9% | – | –
CC[C@@]1(O)C(=O)OCc2c1cc1n(c2=O)Cc2cc3ccccc3nc2-1 | inactive: 22.5% | – | –

Reference: PubChem BioAssay AID1963576 (National Center for Advancing Translational Sciences (NCATS), 2024)
